# Data reported in patent US20130337564A1, “Treatment of Pluripotent Cells” (Janssen Biotech, Inc., priority 2012, published 2013).
# At least one read-out could not be matched to a standard name with certainty.
# System: Sox17 expression in human embryonic stem cells (H9 line)
# Experiment: High content screening assay: Sox17 protein expression (differentiation)
# Format: cell-based
# Conditions: total intensity normalised to Wnt 3a/AA control
# Outline: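 H9 hESCs on MATRIGEL treated days 1-2 with 10 μM compound in DMEM:F12, 0.5% FCS, 100 ng/ml activin A; days 3-4 with 2% FCS plus activin A without compound. Fixed cells immunostained for Sox17 or HNF-3beta with Draq5 nuclear counterstain. Cell number and staining intensity quantified by high-content imaging, 12 fields/well.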
structure (smiles),measurement,value
"Cc1c[nH]c(-c2cnc(NCCNc3ccc(C#N)cn3)nc2-c2ccc(Cl)cc2Cl)n1 [Compound 221, 6-[(2-{[4-(2,4-Dichlorophenyl)-5-(4-methyl-1H-imidazol-2-yl)pyrimidin-2-yl]amino}ethyl)amino]pyridine-3-carbonitrile]",SOX-17 Expression Fold over Wnt 3a/AA control,1.1205 fold
"O=C1NC(=O)C(c2nn(CCO)c3ccccc23)=C1c1cn(-c2cncnc2)c2ccccc12 [Compound 226, 3-[1-(2-Hydroxyethyl)-1H-indazol-3-yl]-4-(1-pyrimidin-5-yl-1H-indol-3-yl)-1H-pyrrole-2,5-dione]",SOX-17 Expression Fold over Wnt 3a/AA control,0.5887 fold
"O=C1NC(=O)C(c2cn(CCCO)c3ncccc23)=C1c1cnccn1 [Compound 47, 3-[1-(3-Hydroxypropyl)-1H-pyrrolo[2,3-b]pyridin-3-yl]-4-pyrazin-2-yl-1H-pyrrole-2,5-dione]",SOX-17 Expression Fold over Wnt 3a/AA control,1.0208 fold
"CN(C)c1ccc(-n2cc(C3=C(c4nn(CCO)c5ccccc45)C(=O)NC3=O)c3cc(Cl)ccc32)cn1 [Compound 148, 3-{5-Chloro-1-[6-(dimethylamino)pyridin-3-yl]-1H-indol-3-yl}-4-[1-(2-hydroxyethyl)-1H-indazol-3-yl]-1H-pyrrole-2,5-dione]",SOX-17 Expression Fold over Wnt 3a/AA control,0.7189 fold
"O=C1NC(=O)C(c2cn(CCOCCOCCNC3CCCc4ccccc43)c3ccccc23)=C1c1cn(CCNC2CCCc3ccccc32)c2ccccc12 (stereo not drawn) [Compound 144, 3-{1-[2-(1,2,3,4-Tetrahydronaphthalen-1-ylamino)ethyl]-1H-indol-3-yl}-4-(1-{2-[(2-{[2-(1,2,3,4-tetrahydronaphthalen-1-ylamino)ethyl]oxy}ethyl)oxy]ethyl}-1H-indol-3-yl)-1H-pyrrole-2,5-dione]",SOX-17 Expression Fold over Wnt 3a/AA control,0.3494 fold
"O=C1NC(=O)C(c2cn(-c3cccnc3)c3ccccc23)=C1c1cn(CCO)c2ccccc12 [Compound 206, 3-[1-(2-Hydroxyethyl)-1H-indol-3-yl]-4-(1-pyridin-3-yl-1H-indol-3-yl)-1H-pyrrole-2,5-dione]",SOX-17 Expression Fold over Wnt 3a/AA control,1.7415 fold
"O=C1NC(=O)C2=C1Nc1cccc(c1)OCCC/C=C\CCCOc1cccc2c1 [Compound 233, (11Z)-8,9,10,13,14,15-Hexahydro-2,6:17,21-di(metheno)pyrrolo[3,4-h][1,15,7]dioxazacyclotricosine-22,24(1H,23H)-dione]",SOX-17 Expression Fold over Wnt 3a/AA control,0.3363 fold
"OCCC#Cc1nc(-c2ccc(F)cc2)c(-c2ccncc2)n1CCCc1ccccc1 [Compound 158, 4-[4-(4-Fluorophenyl)-1-(3-phenylpropyl)-5-pyridin-4-yl-1H-imidazol-2-yl]but-3-yn-1-ol]",SOX-17 Expression Fold over Wnt 3a/AA control,0.3336 fold
"COC(=O)c1cncc(-n2cc(C3=C(c4nn(CCO)c5ccccc45)C(=O)NC3=O)c3cc(Cl)ccc32)c1 [Compound 150, Methyl 5-(5-chloro-3-{4-[1-(2-hydroxyethyl)-1H-indazol-3-yl]-2,5-dioxo-2,5-dihydro-1H-pyrrol-3-yl}-1H-indol-1-yl)pyridine-3-carboxylate]",SOX-17 Expression Fold over Wnt 3a/AA control,0.3610 fold
"CN(CCO)CCCn1nc(C2=C(c3cn(-c4cccnc4)c4ccccc34)C(=O)NC2=O)c2ccccc21 [Compound 198, 3-(1-{3-[(2-Hydroxyethyl)(methyl)amino]propyl}-1H-indazol-3-yl)-4-(1-pyridin-3-yl-1H-indol-3-yl)-1H-pyrrole-2,5-dione]",SOX-17 Expression Fold over Wnt 3a/AA control,0.1625 fold
"CC(C)(O)CCn1nc(C2=C(c3cn(-c4cccnc4)c4ccccc34)C(=O)NC2=O)c2ccccc21 [Compound 223, 3-[1-(3-Hydroxy-3-methylbutyl)-1H-indazol-3-yl]-4-(1-pyridin-3-yl-1H-indol-3-yl)-1H-pyrrole-2,5-dione]",SOX-17 Expression Fold over Wnt 3a/AA control,1.0419 fold
"CN(C)c1cccc(-n2cc(C3=C(c4nn(CCO)c5ccccc45)C(=O)NC3=O)c3ccccc32)c1 [Compound 145, 3-{1-[3-(Dimethylamino)phenyl]-1H-indol-3-yl}-4-[1-(2-hydroxyethyl)-1H-indazol-3-yl]-1H-pyrrole-2,5-dione]",SOX-17 Expression Fold over Wnt 3a/AA control,0.2453 fold
